In the supplement of paper PMC4967469:

Columns and labels:
Experiment in all cases: Viability of human cancer cell lines after 72 h of drug (GDSC screen)
RDEA119 = compound: COc1cc(F)c(F)c(Nc2ccc(I)cc2F)c1NS(=O)(=O)C1(C[C@H](O)CO)CC1 [RDEA119]; conditions: top dose 5 µM, top dose inferred
Description: (§1)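 Human cancer cell lines in 384-well plates, medium with 10% serum, drug for 72 h over a 256-fold dose range (nine 2-fold or five 4-fold steps up to the top dose). Adherent lines were fixed and stained with the nucleic acid dye Syto60, suspension lines read with resazurin; signal relative to control wells, capped at 0 and 100%. One two-parameter sigmoid per drug and line, fitted in a mixed model over all curves with the slope shared within a line.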

QS11 = compound: OC[C@H](Cc1ccccc1)Nc1nc(Oc2ccc3c(c2)CCC3)nc2c1ncn2Cc1ccc(-c2ccccc2)cc1 [QS11]; conditions: top dose 10.24 µM
Description: as §1

AC220 = compound: CC(C)(C)c1cc(NC(=O)Nc2ccc(-c3cn4c(n3)sc3cc(OCCN5CCOCC5)ccc34)cc2)no1 [AC220]; conditions: top dose 1.024 µM; top dose inferred
Description: as §1

5-Fluorouracil = compound: O=c1[nH]cc(F)c(=O)[nH]1 [5-Fluorouracil]; conditions: top dose 32 µM; top dose inferred
Description: as §1

JNK-9L = compound: Fc1cc(-c2ccnc(Nc3ccc(-n4cnc(N5CCOCC5)n4)cc3)n2)cc(N2CCOCC2)c1 [JNK-9L]; conditions: top dose 5.12 µM; top dose inferred
Description: as §1

CUDC-101 = compound: C#Cc1cccc(Nc2ncnc3cc(OC)c(OCCCCCCC(=O)NO)cc23)c1 [CUDC-101]; conditions: top dose 5.12 µM; top dose inferred
Description: as §1

OSU-03012 = compound: NCC(=O)Nc1ccc(-n2nc(C(F)(F)F)cc2-c2ccc3c(ccc4ccccc43)c2)cc1 [OSU-03012]; conditions: top dose 16 µM; top dose inferred
Description: as §1

Row | Cell Line | AUC (RDEA119; screen: GDSC drug entry 1014) | IC50 (RDEA119; screen: GDSC drug entry 1014) [µM] | AUC (RDEA119; screen: GDSC drug entry 1526) | IC50 (RDEA119; screen: GDSC drug entry 1526) [µM] | AUC (QS11) | IC50 (QS11) [µM] | AUC (AC220) | IC50 (AC220) [µM] | AUC (5-Fluorouracil) | IC50 (5-Fluorouracil) [µM] | AUC (JNK-9L) | IC50 (JNK-9L) [µM] | AUC (CUDC-101) | IC50 (CUDC-101) [µM] | AUC (OSU-03012) | IC50 (OSU-03012) [µM]
1 | EGI-1 (biliary tract, adherent) | 0.666 | 1.05 | 0.636 | 0.834 | 0.982 | > 10.2 | 0.976 | > 1.02 | 0.953 | > 32 | 0.614 | 0.725 | 0.785 | 2.93 | 0.735 | 5.86
2 | EJM (lymphoid neoplasm, semi-adherent) | 0.981 | > 5 | 0.992 | > 5 | 0.99 | > 10.2 | 0.982 | > 1.02 | 0.858 | 19.8 | 0.562 | 0.459 | 0.356 | 0.137 | 0.868 | 10.8
3 | EM-2 (chronic myeloid leukaemia, suspension) | 0.494 | 0.299 | 0.517 | 0.35 | 0.961 | > 10.2 | 0.976 | > 1.02 | 0.734 | 10.3 | 0.629 | 0.765 | 0.515 | 0.354 | 0.825 | 11.3
4 | EN (endometrium, adherent) | 0.961 | > 5 |  |  | 0.982 | > 10.2 | 0.959 | > 1.02 | 0.857 | > 32 | 0.762 | 2.3 | 0.607 | 0.683 | 0.841 | 15.7
5 | ES1 (Ewing sarcoma, adherent) | 0.986 | > 5 | 0.985 | > 5 | 0.629 | 1.45 | 0.968 | > 1.02 | 0.423 | 1.24 | 0.656 | 0.86 | 0.362 | 0.134 | 0.37 | 0.439
6 | ES3 (Ewing sarcoma, adherent) | 0.973 | > 5 | 0.963 | > 5 | 0.809 | 5.67 | 0.829 | 0.681 | 0.891 | > 32 | 0.66 | 0.914 | 0.493 | 0.306 | 0.743 | 5.18
7 | ES4 (Ewing sarcoma, adherent) | 0.875 | > 5 | 0.94 | > 5 | 0.854 | 10 | 0.973 | > 1.02 | 0.654 | 5.72 | 0.466 | 0.255 | 0.813 | 3.3 | 0.55 | 1.4
8 | ES5 (Ewing sarcoma, adherent) | 0.947 | > 5 | 0.979 | > 5 | 0.933 | > 10.2 | 0.926 | > 1.02 | 0.681 | 6.94 | 0.722 | 1.52 | 0.276 | 0.0665 | 0.713 | 4.41
9 | ES6 (Ewing sarcoma, adherent) | 0.98 | > 5 | 0.952 | > 5 | 0.863 | > 10.2 | 0.974 | > 1.02 | 0.735 | 11.2 | 0.552 | 0.457 | 0.616 | 0.722 | 0.598 | 1.99
10 | ES7 (Ewing sarcoma, adherent) | 0.982 | > 5 | 0.967 | > 5 | 0.866 | 9.57 | 0.865 | 0.944 | 0.488 | 1.85 | 0.613 | 0.66 | 0.247 | 0.0582 | 0.81 | 8.73
11 | ES8 (Ewing sarcoma, adherent) | 0.978 | > 5 | 0.97 | > 5 | 0.968 | > 10.2 | 0.95 | > 1.02 | 0.521 | 2.26 | 0.359 |  | 0.357 | 0.133 | 0.788 | 6.44
12 | ES-2 (ovary, adherent) | 0.667 | 0.856 | 0.844 | 2.95 | 0.977 | > 10.2 | 0.99 | > 1.02 | 0.623 | 4.16 | 0.809 | 2.29 | 0.537 | 0.397 | 0.865 | 11.4
13 | ESS-1 (endometrium, adherent) | 0.931 | > 5 | 0.925 | > 5 | 0.876 | 8.39 | 0.971 | > 1.02 | 0.713 | 7.45 | 0.638 | 0.735 | 0.454 | 0.243 | 0.653 | 2.52
14 | ETK-1 (biliary tract, adherent) | 0.81 | 3.07 | 0.899 | > 5 | 0.848 | 9.25 | 0.982 | > 1.02 | 0.651 | 5.58 | 0.577 | 0.534 | 0.554 | 0.459 | 0.595 | 1.89
15 | EVSA-T (breast, adherent) | 0.984 | > 5 | 0.984 | > 5 | 0.956 | > 10.2 | 0.985 | > 1.02 | 0.902 | 31.4 | 0.742 | 1.39 | 0.387 | 0.165 | 0.901 | 15.5
16 | EW-1 (Ewing sarcoma, semi-adherent) | 0.978 | > 5 | 0.982 | > 5 | 0.877 | 8.88 | 0.934 | > 1.02 | 0.561 | 2.89 | 0.589 |  | 0.416 | 0.193 | 0.618 | 2.05
17 | EW-3 (Ewing sarcoma, adherent) | 0.983 | > 5 | 0.978 | > 5 | 0.936 | > 10.2 | 0.928 | > 1.02 | 0.763 | 13 | 0.789 | 2.62 | 0.395 | 0.158 | 0.863 | > 16

IC50 is the fitted dose that halves viability relative to control wells, and lower means more sensitive; fits outside the tested doses are given as limits. AUC is the area under the same curve over the 256-fold range up to the top dose, as a fraction; it is 1 without any effect and falls as sensitivity rises. For some of these results: The top dose, if marked as inferred, was derived from the fitted curves, not read from the paper. For some of these results: Drugs with an entry number were screened twice under separate entries, and the two screens often disagree.
